The list shows a part of the results. Sequences were assembled here from the parent chain. Inactive controls read about 0.05.
B1: TEV protease; numbered along this chain (parent)
chain: MGESLFKGPRDYNPISSSICHLTNESDGHTTSLYGIGFGPFIITNKHLFRRNNGTLVVQSLHGVFKVKDTTTLQQHLVDGRDMIIIRMPKDFPPFPQKLKFREPQREERICLVTTNFQTKSMSSMVSDTSCTFPSGDGIFWKHWIQTKDGQCGSPLVSTRDGFIVGIHSASNFTNTNNYFTSVPKNFMELLTNQEAQQWVSGWRLNADSVLWGGHKVFMVKPEEPFQPVKEATQL

Variants of: B1
Test: raw area under fraction-flipped curve 0-4 h after induction (AUC4h, not background-subtracted), DNA-recorder readout of cleavage of the substrate (dimensionless); higher = more cleavage of the substrate by the protease variant
Details: temperature: 34 °C; time window: 0-4 h after rhamnose induction
Method: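 In vivo DNA recorder in E. coli TOP10(DE3) ΔrhaA at 34 °C. Each TEVp single-site mutant (parent TEVp 0) is paired with a single-site variant of the 7-mer TEVs (canonical ENLYFQ|S). The substrate sits between flexible linkers in a Bxb1-sfGFP-TEVs-SsrA fusion, so cleavage stabilises Bxb1 and speeds flipping of a recombination array, read by NGS. The value is the raw area under the fraction-flipped curve over 0-4 h after rhamnose induction (AUC4h), with ≥20 reads per time point. It is not background-subtracted; inactive controls average about 0.047.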
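Further: Bxb1 expression induced with 0.2% (w/v) L-rhamnose at OD600 near 0.5, cultures sampled hourly, flipped fraction per protease–substrate barcode pair counted by paired-end Illumina sequencing.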

Variant | area with substrate ENLYAQS | area with substrate ENLYDQS | area with substrate ENLYEQS | area with substrate ENLYGQS | area with substrate ENLYHQS | area with substrate ENLYIQS | area with substrate ENLYKQS | area with substrate ENLYLQS | area with substrate ENLYMQS | area with substrate ENLYNQS | area with substrate ENLYPQS | area with substrate ENLYQQS | area with substrate ENLYRQS | area with substrate ENLYSQS | area with substrate ENLYTQS | area with substrate ENLYVQS | area with substrate ENLYYQS | area with substrate ENLYCQS | area with substrate ENLYWQS
T181Y | 0.0689 | 0.0586 | 0.069 | 0.0542 | 0.0579 | 0.0593 | 0.0391 | 0.0582 | 0.0656 | 0.0554 | 0.0723 | 0.0354 | 0.0602 | 0.0629 | 0.0341 | 0.051 | 0.0594 |  | 
G213W | 0.0633 |  | 0.0435 | 0.0588 | 0.0574 | 0.0345 | 0.0335 | 0.06 | 0.0504 | 0.0615 | 0.0578 | 0.0419 | 0.0573 | 0.0621 | 0.0651 | 0.0612 |  | 0.0486 | 0.0527
N53I | 0.0748 | 0.0553 | 0.0667 | 0.0682 | 0.081 | 0.079 | 0.0813 |  |  | 0.066 | 0.0565 | 0.0588 | 0.0526 | 0.0649 |  | 0.0892 | 0.0653 |  | 
W212D | 0.0616 | 0.0525 |  | 0.0528 | 0.0562 |  | 0.0114 | 0.0685 |  |  | 0.0565 | 0.0592 | 0.0706 | 0.0483 |  | 0.0515 | 0.108 | 0.0669 | 0.0563
C20T | 0.0701 | 0.0496 | 0.0431 | 0.0583 | 0.0698 | 0.115 | 0.0608 | 0.0732 | 0.0875 | 0.0631 | 0.0794 | 0.0541 | 0.042 | 0.0574 |  | 0.117 |  | 0.0716 | 0.0793
L156M | 0.0912 | 0.0859 | 0.0625 | 0.0808 | 0.075 | 0.103 | 0.0717 | 0.0671 | 0.0758 | 0.0707 |  |  | 0.0526 | 0.0764 |  | 0.116 | 0.0724 | 0.0921 | 
I19C | 0.0613 | 0.0661 | 0.0659 | 0.0589 | 0.0772 |  | 0.063 |  |  | 0.0693 | 0.0762 | 0.0616 | 0.072 | 0.0981 | 0.0635 | 0.149 | 0.0671 |  | 0.0872
Q194E | 0.0787 | 0.0536 | 0.063 |  |  | 0.125 | 0.0451 |  | 0.113 | 0.0746 | 0.0634 |  | 0.072 |  | 0.0955 | 0.176 | 0.102 |  | 0.094
F180P | 0.0846 |  | 0.059 | 0.0519 | 0.0368 | 0.0464 | 0.0278 |  | 0.0475 | 0.0586 | 0.0428 |  | 0.0637 |  |  |  | 0.0466 | 0.0559 | 0.061
N53R | 0.0761 | 0.0587 | 0.0613 |  | 0.06 | 0.114 | 0.0598 |  | 0.0786 | 0.0645 | 0.0662 |  | 0.0318 | 0.0724 |  | 0.0804 |  |  | 0.0724
D27T | 0.0801 | 0.0644 | 0.071 | 0.0546 | 0.0593 | 0.0864 | 0.0704 |  | 0.0707 | 0.0719 | 0.0455 | 0.0439 | 0.0557 |  |  | 0.0871 |  | 0.103 | 0.0694
T44C | 0.0535 | 0.069 | 0.0552 | 0.0776 | 0.0608 | 0.0818 |  | 0.0888 | 0.0799 | 0.0621 | 0.0637 | 0.0579 | 0.0619 | 0.0849 | 0.0603 | 0.101 | 0.048 | 0.0732 | 
P9G | 0.075 | 0.0652 | 0.0774 | 0.0591 | 0.0755 | 0.103 | 0.0579 | 0.0736 | 0.0877 | 0.0794 | 0.0616 |  | 0.0695 | 0.0758 |  |  | 0.0786 |  | 0.0859
S154G | 0.102 | 0.0608 | 0.0651 | 0.0642 |  | 0.101 | 0.0589 |  |  | 0.0645 |  | 0.0158 | 0.0619 |  |  | 0.119 | 0.0601 |  | 0.0752
F187N | 0.0546 | 0.0512 | 0.0576 |  | 0.0411 | 0.0515 | 0.0604 |  | 0.0481 | 0.0427 | 0.0527 | 0.0448 | 0.0514 |  |  | 0.0347 | 0.0494 |  | 0.0548
F173S | 0.019 | 0.0624 | 0.0615 |  | 0.0605 |  | 0.0623 |  | 0.0534 | 0.0664 | 0.0511 | 0.0596 | 0.0482 | 0.073 | 0.0587 | 0.11 |  | 0.0773 | 
R102Q | 0.0432 | 0.0528 | 0.0436 | 0.0658 |  | 0.0566 | 0.0545 |  | 0.0557 | 0.0537 |  | 0.0396 |  | 0.059 |  | 0.0354 | 0.0644 | 0.0637 | 0.0492
S127H | 0.0697 | 0.0651 | 0.0667 | 0.0555 | 0.0871 | 0.138 | 0.0275 | 0.0842 |  | 0.0679 | 0.0689 | 0.0776 | 0.0764 | 0.079 |  |  | 0.071 | 0.0543 | 0.105
S124D | 0.0524 |  | 0.0682 |  | 0.0682 | 0.12 | 0.0546 |  | 0.0798 | 0.0634 | 0.0633 |  | 0.0802 |  |  | 0.115 |  |  | 
S18L | 0.0928 | 0.0626 | 0.0584 | 0.0627 | 0.0654 | 0.109 | 0.0455 | 0.0742 | 0.0768 | 0.0655 | 0.0818 |  |  | 0.0687 | 0.0904 | 0.101 | 0.0737 | 0.0767 | 0.0718
R81L | 0.0657 |  | 0.0756 | 0.0621 |  | 0.0721 | 0.0432 |  | 0.0585 | 0.0396 | 0.0329 | 0.0607 | 0.0619 |  | 0.0677 |  |  |  | 0.0577
N206T | 0.0798 |  |  | 0.0592 | 0.0447 | 0.12 |  |  | 0.0873 | 0.0734 |  |  |  | 0.0584 |  |  |  | 0.0869 | 0.0654
Q151W | 0.0608 | 0.0659 | 0.0589 | 0.0582 | 0.0609 | 0.072 | 0.0642 | 0.0705 | 0.0708 | 0.0591 | 0.0705 |  | 0.069 | 0.0728 | 0.0728 | 0.0767 | 0.06 | 0.0769 | 0.074
T55Y | 0.0669 | 0.0658 | 0.107 | 0.0691 | 0.0691 | 0.106 | 0.069 |  | 0.0868 | 0.0605 | 0.0776 |  | 0.0548 | 0.0664 |  |  | 0.0462 |  | 0.0854

From the supplement of paper PMC12217912
